Laboratory results from PubChem BioAssay AID652104 (National Center for Advancing Translational Sciences (NCATS), 2013).
Out of some 410,000 compounds screened, about 7,200 (1.8%) were called active. The shares of active, inactive and inconclusive entries below differ from those in the screen. The call rests on the fitted dose curve; in most records, active means well fitted activation curve with a large enough effect; inconclusive means small, poorly fitted or top-dose-only effect, or another doubt; inactive means no such curve, though single readings can be large or run the other way. Potencies of inconclusive entries are left out as doubtful fits.

Test: qHTS of TDP-43 Inhibitors; further: nearly all actives have a fitted effect of over 50% in size; on growth rescue (activation): % of control where 0% means no effect
Settings: TDP-43 expressing yeast growth rescue, BacTiter-Glo, 24 h; growth rescue (activation): at 46.1 µM (top of the series) unless noted
Procedure, shortened: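 Readout is BacTiter-Glo luminescence of cell growth, so inhibitors register as activators. TDP-43-expressing yeast at OD600=0.02 in galactose medium, after raffinose pregrowth to mid-log, were incubated with compound for 24 hr at 30 deg C.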
Potency means the concentration at half of the fitted maximal effect; tags describe the fitted curve by direction and shape.

Row | Structure (SMILES) | Potency | growth rescue (activation)
1 | c1ccc(-c2nc(CSc3n[nH]c(-c4cccs4)n3)cs2)cc1 | inconclusive [activator, single point] | –
2 | Cc1ccc(OCC(=O)N2CCc3ccccc3C2)c(C)c1 | inconclusive [activator, single point] | –
3 | O=S(=O)(NCc1ccc2c(c1)OCO2)c1ccc(F)c(F)c1 | inconclusive [activator, single point] | –
4 | Cc1ccc(OCCCCc2c(C)n[nH]c2C)cc1 | inconclusive [activator, partial curve] | –
5 | Cc1ccc(CSc2nnc3[nH]c(=O)cc(C)n23)cc1 | – | inactive: 10.3%
6 | CN1Cc2c(N)cccc2C(c2ccccc2)C1 (centres undefined) | inconclusive [activator, partial curve] | –
7 | COc1ccc(-c2cc(-c3ccc(O)cc3)nc(N)c2C#N)cc1 | inconclusive [activator, full curve, poor fit] | –
8 | COCCNC(=S)N/N=C/c1c2ccccc2cc2ccccc12 | inconclusive [activator, single point] | –
9 | COCCCNC(=S)N1CCN(c2nc(-c3ccc(F)cc3)cs2)CC1 | active: 22.4 µM | –
10 | CCS(=O)(=O)Nc1ccc(-c2cc(-c3ccccc3)c3cc(C)ccc3n2)cc1 | inconclusive [activator, single point] | –
11 | CC(C)(C)c1ccc(/C=N/OCC(=O)NCc2ccccc2)cc1 | inconclusive [activator, partial curve] | –
12 | CCc1ccc(NC(=O)C2(C)Cc3ccccc3C(=O)O2)cc1 (centres undefined) | inconclusive [activator, partial curve, poor fit] | –
13 | COc1ccc2c(c1)CC/C2=N\OC(=O)c1ccccc1OC | inconclusive [activator, partial curve] | –
14 | Cc1ccc(NC(=S)NCc2ccc3c(c2)OCO3)c(C)c1 | inconclusive [activator, partial curve, poor fit] | –
15 | O=C(/C=C/Nc1ccccc1C(F)(F)F)c1ccco1 | inconclusive [activator, partial curve] | –
16 | CC(C)OCCCNc1ncc2c(n1)CC(c1cccs1)CC2=O (centres undefined) | inconclusive [activator, partial curve] | –
17 | Cc1c(C(=O)Nc2cccc(C(F)(F)F)c2)oc2ccc(S(=O)(=O)N(C)C3CCCCC3)cc12 | inconclusive [activator, partial curve] | –
18 | O=C(CC1C(=O)N(c2ccccc2)C(=O)N1CCc1cccs1)Nc1ccc(Cl)cc1 (centres undefined) | – | inactive: 4.19%
19 | COc1ccc([N+](=O)[O-])cc1NC(=O)C(C)Sc1ccccc1 (centres undefined) | inconclusive [activator, partial curve] | –
20 | CCNC(=O)c1ccc(-n2c(-c3ccccc3)cc3c2CCCCC3)cc1 | inconclusive [activator, partial curve] | –
21 | Cc1ccc(C)c(S(=O)(=O)N2CC(=O)N(CCc3ccccc3)C(=O)C2)c1 | inconclusive [activator, single point] | –
22 | Brc1ccc(Oc2nnnn2-c2ccccc2)cc1 | active: 15.8 µM | –
23 | COc1cccc(NC(=O)COC(=O)/C=C/c2c(C)nn(-c3ccccc3)c2C)c1 | active: 20 µM | –

Row | Structure (SMILES) | Potency | growth rescue (activation)
24 | Cc1cccc(Nc2nc(-c3ccccc3)cs2)n1 | active: 14.1 µM | –
25 | O[C@@H]1CN(Cc2cccs2)[C@@H](c2ccc(Cl)cc2)C[C@H]1n1cc(-c2ccc(F)cc2)nn1 | – | inactive: 5.42%
26 | Cc1ccc(N2C(=O)c3ccccc3C2Nc2ccc(S(=O)(=O)N3CCCCC3)cc2)nc1 (centres undefined) | inconclusive [activator, partial curve] | –
27 | COc1ccc(OC)c(NC(=O)C2CC2c2ccccc2)c1 (centres undefined) | inconclusive [activator, partial curve, poor fit] | –
28 | COc1ccc2c(=O)cc(-c3ccccc3F)oc2c1 | inconclusive [activator, partial curve] | –
29 | Cn1c(SCC(=O)N2CCOCC2)nc2sc3c(c2c1=O)CCCC3 | inconclusive [activator, full curve, poor fit] | –
30 | O=C(Cn1c(=O)oc2cc(S(=O)(=O)NCc3ccccc3)ccc21)N(CCO)Cc1ccccc1 | – | inactive: 11.3%
31 | COc1ccccc1NC(=O)N1CCc2c([nH]c3ccccc23)C1C(F)(F)F (centres undefined) | inconclusive [activator, single point] | –
32 | Cc1ccc(C)c(OCCC(=O)Nc2ccc3c(c2)OCO3)c1 | active: 11.2 µM | –
33 | O=C(Cc1cccs1)Nc1cc(SCCO)cc([N+](=O)[O-])c1 | inconclusive [activator, partial curve, poor fit] | –
34 | CCc1ccc(NC(=O)c2cc3c(C)nc4ccccc4c3o2)cc1 | inconclusive [activator, partial curve, poor fit] | –
35 | O=C(NCc1ccco1)c1ccc2c(c1)C(=O)N(Cc1ccccc1)C2=O | inconclusive [activator, full curve, poor fit] | –
36 | COc1cc(CNc2ncnc3c2ncn3[C@H]2CN(Cc3cccs3)C[C@@H](CO)O2)cc(OC)c1OC | inconclusive [activator, partial curve, poor fit] | –
37 | Cc1ccc(OCCCC(=O)NCc2ccco2)cc1 | – | inactive: -19.9%
38 | CCc1n[nH]c(=S)n1N=C1CCC(C)CC1 (centres undefined) | active: 3.55 µM | –
39 | CCc1cc2cc(C)cc(C)c2nc1SCC(=O)NNC(=O)c1ccco1 | inconclusive [activator, partial curve] | –
40 | O=C(COc1ccccc1Cl)Nc1ccc(N2CCN(C(=O)c3ccccc3)CC2)cc1 | active: 22.4 µM | –
41 | Cc1ccccc1C(=O)Nc1ccc(Cl)cn1 | inconclusive [activator, partial curve] | –
42 | CCC1CN(C(=O)Nc2cc(OC)cc(OC)c2)c2ccccc2S1 (centres undefined) | inconclusive [activator, single point] | –
43 | CCCCC1OC23CCCCC2C(C#N)(C(=N)O3)C1(C#N)C#N (centres undefined) | – | inactive: 12.6%
44 | O=C(N/N=C/c1c(O)ccc2ccccc12)c1cccc(C(F)(F)F)c1 | inconclusive [activator, full curve] | –
45 | CCOc1ccc(NC(=O)c2ccc3nc(Cc4ccccc4)oc3c2)cc1 | – | inactive: 15.9%
46 | Cc1noc(C)c1COc1ccc(C(=O)N2CCN(c3ccccc3F)CC2)cc1 | inconclusive [activator, single point] | –

Row | Structure (SMILES) | Potency | growth rescue (activation)
47 | COc1cccc(C(=O)NCC(C)(C)SCc2ccc(F)cc2)c1 | inconclusive [activator, partial curve] | –
48 | CCOc1ccccc1NC(=O)c1cnn2c(C(F)F)cc(-c3ccccc3)nc12 | – | inactive: 15.5%
49 | COC(=O)c1c(Cc2ccccc2Cl)c[nH]c1C | inconclusive [activator, partial curve] | –
50 | Fc1cccc(Nc2ncnc3sc4c(c23)CCC4)c1 | inconclusive [activator, partial curve, poor fit] | –
51 | O=C(CCNC(=O)c1ccc(Br)o1)NCc1ccc(Cl)cc1 | – | inactive: -16.9%
52 | CCC(C)NC(=O)c1nn(-c2ccc(C)cc2)c(=O)n(C)c1=O (centres undefined) | – | inactive: 23% [at 9.22 µM]
53 | Cc1cn([C@H]2C[C@H](O)[C@@H](/C=C/C(=O)NCCc3ccc4c(c3)OCO4)O2)c(=O)[nH]c1=O | – | inactive: 24.2%
54 | CCOc1ccc(C(=O)N2CCN(CC(=O)N3CCCC3)CC2)cc1OCC | inconclusive [activator, full curve, poor fit] | –
55 | COc1ccc(N2CCN(c3ncnc4scc(-c5ccc(C)cc5)c34)CC2)cc1 | inconclusive [activator, single point] | –
56 | C/C(=C\C(=O)O)C12CC3CC(CC(C3)C1)C2 | inconclusive [activator, single point] | –
57 | Cc1nc(C(=O)NC2CC2)sc1C1(C)CC(c2ccccc2)=NO1 (centres undefined) | inconclusive [activator, single point] | –
58 | CCOC(=O)/C=C/c1ccccc1S(=O)(=O)NC(C)(C)C | inconclusive [activator, single point] | –
59 | Cc1ccc2nc(Nc3ccccc3)c(/C=N/O)c(=O)n2c1 | inconclusive [activator, partial curve] | –
60 | COc1ccc2c(c1)c1nnc(SCC(=O)N3C(C)CCCC3C)nc1n2C (centres undefined) | active: 14.1 µM | –
61 | Nc1nccc(-c2cc(-c3ccc(Cl)cc3Cl)no2)n1 | inconclusive [activator, partial curve] | –
62 | CC(C)Oc1ccc(F)cc1-c1cc(C(=O)N2CCc3ccccc3C2)[nH]n1 | active: 28.2 µM | –
63 | O=c1c(/C=N\NS(=O)(=O)c2ccccc2)coc2ccc(Cl)cc12 | inconclusive [activator, partial curve] | –
64 | CCCc1nn2c(=O)cc(COC(=O)c3ccccc3NC(=O)c3ccc(Cl)cc3)nc2s1 | – | inactive: 3.4%
65 | CCc1ccccc1Nc1cc(C(=O)NC(C)c2ccccc2)c2ccccc2n1 (centres undefined) | inconclusive [activator, single point] | –
66 | Fc1ccc(-c2csc3ncnc(Nc4ccc(N5CCOCC5)cc4)c23)cc1 | inconclusive [activator, single point] | –
67 | O=C1C(=NO)C(c2ccccc2)Oc2ccccc21 (centres undefined) | inconclusive [activator, single point] | –
68 | CCOc1ccc(NC(=O)CN2CCCN(Cc3cc(C)ccc3C)S2(=O)=O)cc1 | – | inactive: 7.58%
69 | COc1ccc(C2CC(O)(c3ccccc3)Oc3cc(OC)ccc32)cc1 (centres undefined) | active: 20 µM | –
